# Hit rate of the full screen: of about 310,000 compounds, about 2,200 (0.71%) showed an effect of 50% or more. Effects have a minus sign here. This is one part of the list.
# Target: human ether-à-go-go-related gene (hERG) potassium channel (human, UniProt Q12809)
# Test: primary screen, population patch clamp on CHO cells stably expressing hERG
# human ether-à-go-go-related gene (hERG) potassium channel, sequence (Q12809 whole entry, looked up): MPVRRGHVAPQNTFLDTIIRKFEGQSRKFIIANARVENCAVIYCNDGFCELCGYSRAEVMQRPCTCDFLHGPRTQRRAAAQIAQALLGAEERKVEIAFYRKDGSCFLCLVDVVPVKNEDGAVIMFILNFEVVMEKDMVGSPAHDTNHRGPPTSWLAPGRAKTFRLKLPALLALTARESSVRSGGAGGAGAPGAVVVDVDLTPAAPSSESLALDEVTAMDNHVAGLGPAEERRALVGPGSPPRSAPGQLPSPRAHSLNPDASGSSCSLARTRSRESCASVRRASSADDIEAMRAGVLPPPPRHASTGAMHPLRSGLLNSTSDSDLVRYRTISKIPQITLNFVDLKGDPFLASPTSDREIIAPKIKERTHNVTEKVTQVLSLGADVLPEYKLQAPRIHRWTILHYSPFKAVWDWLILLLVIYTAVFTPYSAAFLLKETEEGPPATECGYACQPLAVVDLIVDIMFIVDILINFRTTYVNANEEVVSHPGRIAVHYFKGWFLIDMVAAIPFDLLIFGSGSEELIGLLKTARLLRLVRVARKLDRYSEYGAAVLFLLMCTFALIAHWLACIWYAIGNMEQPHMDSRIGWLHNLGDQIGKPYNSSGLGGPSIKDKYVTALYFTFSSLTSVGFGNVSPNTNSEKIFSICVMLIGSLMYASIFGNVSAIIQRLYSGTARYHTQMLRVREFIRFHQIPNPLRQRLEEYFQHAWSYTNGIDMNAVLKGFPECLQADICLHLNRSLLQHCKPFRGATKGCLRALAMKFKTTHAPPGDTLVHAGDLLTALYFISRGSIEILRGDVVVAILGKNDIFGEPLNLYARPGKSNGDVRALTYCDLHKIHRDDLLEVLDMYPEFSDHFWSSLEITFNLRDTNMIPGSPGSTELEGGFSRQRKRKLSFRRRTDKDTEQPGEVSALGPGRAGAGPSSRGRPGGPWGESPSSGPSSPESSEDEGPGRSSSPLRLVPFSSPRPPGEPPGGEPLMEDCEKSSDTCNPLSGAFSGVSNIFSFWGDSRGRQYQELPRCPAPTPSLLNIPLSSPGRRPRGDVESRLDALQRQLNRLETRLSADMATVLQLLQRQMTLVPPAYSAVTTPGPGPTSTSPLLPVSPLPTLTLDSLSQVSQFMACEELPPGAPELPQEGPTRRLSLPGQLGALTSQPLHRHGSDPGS
row,Compound,"hERG current change (%, negative = inhibition) at 1uM"
1,Cc1nnc(SCC(=O)NNC(=O)c2ccc(Cl)cc2)s1,19.1%
2,Cc1ccc(-c2csc(SCC(=O)Nc3cc(C)on3)n2)cc1,-1.6%
3,Cc1ccc(C(=O)NCCCN2CCOCC2)c(Cl)c1,14.4%
4,CCCN1CCc2c(sc(NC(=S)NC(=O)c3ccccc3)c2C#N)C1,11.5%
5,COc1ccccc1CCC(=O)OCC(=O)Nc1cccc(S(=O)(=O)N2CCOCC2)c1,0.0189%
6,O=C(COc1cccc(F)c1)NNC(=O)Cc1ccc(Br)cc1,12.4%
7,CC1(C)CC(NCCC(c2ccccc2)c2ccco2)CCO1 (centres unmarked),-22.9%
8,COc1ccc2oc(=N)c(C(=O)Nc3ccc(Cl)cc3)cc2c1,12.1%
9,Cc1ccc(-n2c(SCC(=O)Nc3ccc4c(c3)OCCO4)nnc2-c2ccco2)cc1,-17.5%
10,N#Cc1cn(Cc2ccccc2)c(=O)[nH]c1=O,15.9%
11,CC1(C)CC(=O)c2cnc(N)nc2C1,11.3%
12,CC(C)Cc1cc(C(=O)Nc2sc3c(c2C#N)CCC3)no1,8.6%
13,Cc1ccccc1-c1nc(CS(=O)(=O)CC(=O)NC(C)c2ccccc2)c(C)o1 (centres unmarked),11.9%
14,C/C(=N\NC(N)=S)C1=CCC2C3CC[C@H]4CC(O)CC[C@]4(C)C3CC[C@]12C (some centres unmarked),1.41%
15,Cc1ccc2c(c1)nnn2C1CCN(S(=O)(=O)c2ccc(C(=O)N(C)C)cc2)CC1,-12.6%
16,Cc1ccc(NC(NC(=O)c2cccnc2)C(Cl)(Cl)Cl)cc1 (centres unmarked),7.94%
17,CCOCCCNC(=O)c1ccccc1SCC,0.338%
18,Cc1cc(C)nc(NCc2ccc(Cl)cc2)n1.Cl,10.3%
19,O=C(CSc1nnc(NC(=O)C2CC2)s1)Nc1ccc(F)cc1,17.2%
20,Cc1cccc(CN2CCC(Oc3ccc(C(=O)N4CCCCC4)cc3)CC2)c1,7.21%

row,Compound,"hERG current change (%, negative = inhibition) at 1uM"
1,COC(=O)CCc1sc(Nc2ccccc2)nc1-c1ccc(OC)cc1,8.21%
2,CSc1nc2ccccc2cc1/C=C(\C#N)c1ccc(Cl)c(Cl)c1,8.86%
3,CCn1c(=O)c([N+](=O)[O-])c(NCCc2ccc(OC)c(OC)c2)c2ccccc21,6.82%
4,CC(=O)N1N=C(c2ccc(Cl)cc2)OC12CCCC2,8.68%
5,CCCSc1nn2c(=O)c3ccccc3nc2s1,6.86%
6,CCN(CC)C(=O)C(C)N(C#N)c1nc(SC)nc(N(C)C)n1 (centres unmarked),-5.14%
7,COc1cnc(SC(C)C)[nH]c1=O,19.4%
8,O=C1CC(=O)N(c2cccc(F)c2)C(=O)N1,16.9%
9,CNc1nc2c(N)ncnc2n1[C@H]1O[C@@H](CO)[C@H](O)[C@@H]1O,7.61%
10,CC(C)CN=CC1=C(O)c2ccccc2C1=O,-28%
11,CN1CCc2c(c3ccccc3n2Cc2ccccc2)C1.Cl,-30.9%
12,Oc1ccccc1-c1nnc2n1CCCCC2,10.6%
13,COc1ccc(CCNC(=O)C2CCCN(S(=O)(=O)c3ccc(OC)cc3)C2)cc1 (centres unmarked),-7.05%
14,CCOC(=O)N1CCC(N(CCN(C)C)C(=S)Nc2cc(Cl)ccc2C)CC1,3.01%
15,O=C(c1ccco1)N1CCN(S(=O)(=O)c2cccc(Cl)c2)CC1,4.12%
16,COC(=O)c1ccc(-c2ccco2)n1Cc1cccc(C)c1,10.5%
17,Cc1ccc(-c2noc(CCCC(=O)NC3CCCCC3)n2)cc1,7.88%
18,COc1cccc(-c2csc3nnc(SCC(=O)NCc4cccs4)n23)c1,6.37%
19,CC(C)[C@H](N)C(=O)OCCOCn1cnc2c(=O)[nH]c(N)nc21.Cl,2.41%
20,CC(=O)Nc1ccc(NC(=O)CCN2C(=O)C3CC=CCC3C2=O)cc1 (centres unmarked),13.7%

row,Compound,"hERG current change (%, negative = inhibition) at 1uM"
1,COc1ccc(NC(=O)C2(S(=O)(=O)c3ccc(C)cc3)CC2)cc1,7.69%
2,O=C(O)C(=O)O.O=[N+]([O-])c1ccccc1OCCNCc1ccccc1,10.9%
3,Oc1ccc(Cl)cc1C=NCCc1ccccc1,7.22%
4,CCc1cc2c(SCC(=O)N3CCCC3=O)ncnc2s1,-3.34%
5,CCN(CC)C(=O)CSc1nc(C)cc(C)c1C#N,6.98%
6,O=C(CN1CCN(C(=O)c2cccc(S(=O)(=O)N3CCCC3)c2)CC1)Nc1ccc(F)cc1,-15%
7,Cc1cc(C)cc(-n2ncc3c2CCCC3NC(=O)c2cc(C)oc2C)c1 (centres unmarked),9.68%
8,Cc1ccc(C(=O)OCC(=O)NCc2cccs2)cc1,2.15%
9,CC(C)(C)c1nnc(NC(=O)C2c3ccccc3Oc3ccccc32)s1,5.57%
10,Cc1cc(NC(=O)CSc2nncn2-c2ccccc2)no1,8.45%
11,COc1ccccc1-c1nc2s/c(=C\c3cccs3)c(=O)n2n1,9.81%
12,O=C(CSc1nnc(-c2ccncc2)o1)Nc1ccccc1C(F)(F)F,0.939%
13,CCOC(=O)C1CCN(C(=O)COc2ccc(Cl)cc2Cl)CC1,-4.79%
14,O=C(NCc1cccc(C(F)(F)F)c1)c1cc(-c2ccccc2)nn1CC1CC(c2cccnc2)=NO1 (centres unmarked),11.4%
15,Nc1ncc(-c2ccc([N+](=O)[O-])cc2)cn1,-0.958%
16,CC(=O)NC12CC3CC(C1)CC(C(=O)N1CCN(S(=O)(=O)c4cccs4)CC1)(C3)C2,-0.585%
17,Cc1ccc(CN2C(=O)CCC2C(=O)N2CCN(c3ccccc3)CC2)cc1 (centres unmarked),-5.73%
18,NS(=O)(=O)c1ccc(NC(=S)N2CCN(c3ccccc3Cl)CC2)cc1,12%
19,CN(c1ccccc1)S(=O)(=O)c1cccc(C(=O)NNC(=O)c2ccncc2)c1,-25%

# Source: publication PMC4336329 (PLoS ONE, 2015)
